Laboratory results reported in PubChem BioAssay AID493208 (National Center for Advancing Translational Sciences (NCATS), 2011).
Out of some 44,000 compounds screened, about 340 (0.77%) were called active. Another 5% or so got no clear call; they are omitted. Calls come from the whole dose curve; as a rule, active = well fitted inhibition curve with a large enough effect; inconclusive = small, poorly fitted or top-dose-only effect; inactive = flat fitted curve, though single readings scatter. The list shows a part of the results.

Assay: Acumen qHTS Assay for Inhibitors of the mTORC1 Signaling Pathway in MEF (Tsc2-/-, p53-/-) Cells: Sytravon;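 note: plate controls were DMSO for no effect and rapamycin for full effect; nearly all actives have a fitted effect of over 50% in size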
Conditions: phospho-rpS6 immunofluorescence/PI, 24 h; series mostly up to 38.3 µM; activity change, negative = inhibition: at the top concentration
In short: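 Plate MEFs (Tsc2-/-, p53-/-, empty vector) in DMEM/10% FBS; after 24 h add compound, incubate 24 h at 37 degree Celsius; fix in PFA/TX-100, block, stain phospho-rpS6 and 10 uM PI; scan at 488 nm; report % positive cells.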

Activity change, negative = inhibition, inactive:
Cc1cc(C)n(C(C)CC(=O)Nc2cccc(C(F)(F)F)c2)n1 (stereo unspecified) -14.3%
O=C(Nc1cc(-c2nc3ccccc3o2)ccc1Cl)c1sc2c([N+](=O)[O-])cccc2c1Cl -4.66%
CC(C)(C)OC(=O)N1CCC(c2c(C(=O)NCc3cccc(Cl)c3)cnn2-c2ccc(F)cc2)CC1 -11.8%
CCOc1ccc(CN2CCc3nc(N4CCN(c5ccccc5OC)CC4)ncc3C2)cc1OC -0.004%
CCc1ccccc1NC(=O)CSc1nc(-c2cccc(Cl)c2)nc2c1Cc1c(CO)cnc(C)c1O2 -0.69%
COc1cc(/C=C(\C#N)C(=O)NCC2CCCO2)ccc1O (stereo unspecified) 0.648%
COc1ccc(-n2c(-c3ccc(C)cc3)cc3c2CC(C)(C)CC3=O)cc1Cl -1.5%
Cc1ccccc1C(=O)Nc1nnc(S(=O)(=O)N(C)Cc2ccccc2)s1 -2.37%
O=C(NCCCN1CCCCC1)c1sc2ncccc2c1-n1cccc1 -4.87%
CC1CCN(C(=O)Cn2c(=O)n(CC3CCC(C(=O)NC(C)C)CC3)c(=O)c3sccc32)CC1 (stereo unspecified) 5.04%
CCOC(=O)c1ccc(NC(=O)CC2C(=O)N(c3ccc(F)cc3)C(=O)N2Cc2cccnc2)cc1 (stereo unspecified) 0.369%
COc1ccc(-c2nc(SCC(=O)NC3CCCC3)c(-c3ccc(F)cc3)[nH]2)cc1 -2.3%
CC(C)c1ccc(Cn2c(COc3ccccc3)nc3ccccc32)cc1 1.89%
CCn1nc(C)c2c(-c3ccccc3)cc(=O)n(C(C)C(=O)NCCC(C)C)c21 (stereo unspecified) 1.95%
CC(=O)Nc1ccc(NC(=O)CCc2nc3cccnc3n2Cc2cccs2)cc1 0.0134%
Cc1ccc(NC(=O)Cn2nc(C(=O)Nc3ccc(C)cc3)ccc2=O)cc1 -5.59%
CC1CCN(Cc2c(O)ccc3c(=O)c(Oc4ccccc4Cl)c(C(F)(F)F)oc23)CC1 0.498%
COc1ccc(CNS(=O)(=O)c2ccc(N3CCCCS3(=O)=O)cc2)cc1 0.278%
CCc1ccc(OC(C)C(=O)N2CCC(c3nc4ccccc4o3)CC2)cc1 (stereo unspecified) -6.43%
Cc1ccc(C(=O)Nc2ccc3c(c2)n(C)c(=O)c(=O)n3C)cc1 -25.4%
O=C(COc1ccccc1F)Nc1ccc2nc(SCCOc3ccccc3)sc2c1 -1.49%
Cc1ccc(NC(=O)Cn2c(=O)n(Cc3nc(-c4ccccc4)no3)c(=O)c3cc4c(cc32)OCO4)cc1F 0.0504%
COc1ccc(NC(=O)CC2C(=O)N(c3cccc(OC)c3)C(=O)N2CCc2cccs2)cc1 (stereo unspecified) 1.94%
CCCCN(CC)CCCNC(=O)CS(=O)(=O)Cc1nc(-c2ccc(C)cc2)oc1C -11.6%
CCOc1ccc(CCNC(=O)C2CCN(C(=O)N3CC(CC)Oc4ccccc43)CC2)cc1 (stereo unspecified) -1.9%
CCCOc1ccc(C(=O)Nc2ccc3oc(-c4ccncc4)nc3c2)cc1 4.61%
O=C(Nc1nnc(N2CCCCCC2)s1)Nc1cc(F)ccc1F -9.24%
CCOCCCN(Cc1ccco1)S(=O)(=O)c1cc2c(cc1Cl)NC(=O)CO2 -11.3%
Cc1c2cnn(CC(=O)NCc3ccc(F)cc3)c(=O)c2c(C)n1Cc1cccc(Cl)c1 -10.1%
O=C(NCc1ccc(Cl)cc1)c1cnc2sc(N3CCOCC3)nn2c1=O -3.42%
Cc1ccccc1-c1noc(-c2ccc(N3CCCCC3)c([N+](=O)[O-])c2)n1 2.81%
COc1ccc(NC(c2nnc(-c3ccccc3)o2)c2ccccc2F)cc1Cl (stereo unspecified) -0.167%
COc1cc(NC(=O)CSc2nnc(C)n3c2cc2oc(C)cc23)cc(OC)c1 -8.61%
Cn1nnc2c(N3CCN(c4cccc(Cl)c4)CC3)ncnc21 1.38%
COCCN(Cc1cccs1)S(=O)(=O)c1cc(-c2cc(C)no2)ccc1C -3.01%
COCCCNC(=O)c1c(NC(=O)Cc2coc3c(C)c(C)ccc23)sc2c1CCCC2 2.9%
COc1cccc(CNC(=O)CCS(=O)(=O)c2ccc3c(c2)oc(=O)n3C)c1 2.62%
CCC(Sc1nnc2c(n1)[nH]c1ccccc12)C(=O)Nc1nnc(C(C)C)s1 (stereo unspecified) -0.624%
CCCCOC(=O)c1c(N)n(-c2ccc(OC)cc2OC)c2nc3ccccc3nc12 -4.95%
Cc1ccc(CCNS(=O)(=O)c2cc(-c3cc(C)no3)ccc2C)cc1 -0.562%
O=C(NC1CC(=O)N(c2cccc(F)c2)C1)c1cccs1 (stereo unspecified) 1.14%
CCOc1ccc(C(=O)NCc2ccc3c(c2)CCN3C(=O)c2ccc(Cl)cc2)cc1 -1.64%
Cc1cccc(-n2ncc(C(=O)N3CCOCC3)c2C2CCN(C(=O)OC(C)(C)C)CC2)c1 -1.7%
CC(C)N(C(=O)Cn1cc(SCC(=O)Nc2ccccc2F)c2ccccc21)C(C)C -10.1%
CCc1ccc(OCC(=O)NC(Cc2c[nH]c3ccccc23)C(=O)O)cc1 (stereo unspecified) 0.892%
CC(C)C(=O)Nc1ccc2nc(SCC(=O)N3CCCC3)sc2c1 0%
CCCN(C(=O)c1cc2c(=O)oc3ccccc3c2s1)c1ccc(CC)cc1 -3.79%
Cc1ccccc1Nc1cc(C(=O)NCCCN2CCN(c3cccc(Cl)c3)CC2)c2ccccc2n1 2.17%
Cc1c(Cl)cccc1NC(=O)N1CCN(C(=O)c2nsc3ccccc23)CC1 0%
CCc1ccc(NC(=O)c2ccc(CN3CC(=O)N4CCCCC4C3=O)cc2)cc1 (stereo unspecified) -7.02%
Cc1ccc(C(C)C)c(OCCSc2nc(-c3ccccc3F)nc3cc(=O)[nH]n23)c1 3.34%
Cc1c(CCC(=O)NCCc2ccccc2)c(=O)oc2c(C)c(O)ccc12 2.08%
COc1cccc(-n2c(=O)c3c(C)c(C)sc3n(CC(=O)NCCc3ccc(OC)c(OC)c3)c2=O)c1 3.71%
COc1cccc(CNC(=O)c2cc(C)nc3c2c(C)nn3-c2ccc(C)cc2)c1 3.03%
COc1ccc(OC)c(NC(=O)CSc2ccc(-c3cccs3)nn2)c1 -9.31%
COc1cc(OC)c(NC(=O)C2CCN(S(=O)(=O)c3c(C)noc3/C=C/c3c(C)cc(C)cc3C)CC2)cc1Cl 2.23%
CN(Cc1ccccc1)C(=O)c1cn(C)c2ccc(S(=O)(=O)N3CCCCC3)cc2c1=O -13.2%
CC12CN3CC(c4ccccc4)(CN(C1)C3c1ccc(O)cc1)C2=O (stereo unspecified) -2.28%
CCn1c(C(=O)NCc2ccc(F)cc2)cc2oc3ccccc3c21 0.541%
Cn1c(=O)oc2cc(S(=O)(=O)NC(Cc3ccccc3)C(=O)Nc3ccc(F)cc3)ccc21 (stereo unspecified) -5.24%
CCOC(=O)c1c(NC(=O)C(C)Sc2cn(CCNC(=O)c3c(F)cccc3F)c3ccccc23)sc2c1CCC2 (stereo unspecified) -2.82%
